Source: the RNAGym collection of RNA variant scans (doi:10.1073/pnas.2313332121)
This sample is rich in variants without activity.

B1: TPR 5TU (parent)
chain: GGAUCUUCUCGAUCUAACAAAAAAGACAAAUCUGCCACAAAGCUUGAGAGCAUCUUCGGAUGCAGAGGCGGCAGCCUUCGGUGGCGCGAUAGCGCCAACGUUCUCAACUAUGACACGCAAAACGCGUGCUCCGUUGAAUGGAGUUUAUCAUG

Variants of: B1
Test: polymerase ribozyme fitness, log enrichment relative to wild type (log ratio); higher = more active; in vitro selection for triplet polymerase activity
Procedure, shortened: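 Only genotypes with ≥10 input reads and ≥1 read per output were kept after Illumina sequencing of input and output libraries. These libraries were PCR-built, transcribed mutants of each subunit of a heterodimeric triplet polymerase ribozyme, each put through one triplicate in vitro selection round with frozen incubation at −7 °C, gel excision of extended constructs, streptavidin-bead capture and RT-PCR. Fitness is a logarithmic ratio of genotype enrichment to wild-type enrichment, from inverse-variance-weighted replicate averages, with the logarithm in base 2.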

Variant | polymerase ribozyme fitness (log ratio)
A23U C87G | ≤ -4.2
A23U C93A A97G A113G G124U | ≤ -4.2
A23U C93U A97G A113C G136U U148G | ≤ -4.2
A23U C96U | -4.1
A23U G25C A52C U55A A122C | ≤ -4.2
A23U G34U A66U G84A C103G A120U C123G | ≤ -4.2
A23U G42A C43G A60C G68A G74C C105U G112U A113U C118U U139G | ≤ -4.2
A23U G42A G68C G92A U102G | ≤ -4.2
A23U G42C C75U U82G G84U C96A | ≤ -4.2
A23U G48A A52G U53C C54U G86A | ≤ -4.2
A23U G48C C54A C75G G80C C96U G140A | ≤ -4.2
A23U G50A A52U G80C G92U C95U A98G C103G | ≤ -4.2
A23U G50A A60C A66U C85U C95G A122C | ≤ -4.2
A23U G50C U139G | ≤ -4.2
A23U G50U G67C C72G G83C G117C U148C | ≤ -4.2
A23U G58C G88U G136A | ≤ -4.2
A23U G62A C75U G94A C116G | ≤ -4.2
A23U G65U G71C U102G C105A A110U G136U | ≤ -4.2
A23U G67C G68U U82C U90A C95U G112A G124A U146G | ≤ -4.2
A23U G81U C85G G143U | ≤ -4.2
A23U G81U G86U U127G G141U U145A | ≤ -4.2
A23U G83A C85A | ≤ -4.2
A23U U31A C87A G92C | ≤ -4.2
A23U U44A C93U | ≤ -4.2

Variant | polymerase ribozyme fitness (log ratio)
A23U U44A G70C C99G A142U | ≤ -4.2
A23U U44A U45A A66U C95U A120G | ≤ -4.2
A23U U53G C95U G133A G140U | ≤ -4.2
A23U U55A C57U G68U A73G G80C G94U U104C | ≤ -4.2
A23U U55A C85G G124C | ≤ -4.2
A23U U55A G88A C114A G136C | ≤ -4.2
A23U U55C C76U A137C A147C | ≤ -4.2
A23U U56A G88U A91G G126A | ≤ -4.2
A23U U56G G58C G74C G88U | ≤ -4.2
A23U U77A A110U | ≤ -4.2
A23U U77G G92U | ≤ -4.2
A23U U109A | ≤ -4.2
A24C A26C G92A U102G | ≤ -4.2
A24C A28U A37U U134C | ≤ -4.2
A24C A29C A37U G59A U61G C87A C103G G117U | ≤ -4.2
A24C A29C G68C U148G | ≤ -4.2
A24C A29G C51U C95G C96U C114A U146C | ≤ -4.2
A24C A29G C93U G136U A137G | ≤ -4.2
A24C A30G A73U C96A | ≤ -4.2
A24C A30U A52G G58A G68A U82G C93U A98U G100C C125A G126U | ≤ -4.2
A24C A37C A66C C93G C105U A121G G152U | ≤ -4.2
A24C A37C C38U G59A C95A A107C C116U | ≤ -4.2
A24C A37C C72U G92A A107G | ≤ -4.2
A24C A37G C51A C54A G94U C132U U148C | ≤ -4.2

Variant | polymerase ribozyme fitness (log ratio)
A24C A37G C87G C95G A138U | ≤ -4.2
A24C A37G G48C C63U U78G G88C U144G | ≤ -4.2
A24C A39C A47G U101G C131G U135C G141A | ≤ -4.2
A24C A49G G67U G83C A106U G126U C132U | ≤ -4.2
A24C A64C | ≤ -4.2
A24C A73U A110U G152A | ≤ -4.2
A24C A89U C95G U111C | ≤ -4.2
A24C A98U | ≤ -4.2
A24C C27A C35G C95G C96G A142C | ≤ -4.2
A24C C27U A91U | ≤ -4.2
A24C C27U U33A A49C U53A C85U | ≤ -4.2
A24C C32G C51G C54U U82G G84U C93G C108G G143A | ≤ -4.2
A24C C69G C85U G117U G141C A150U U151G | ≤ -4.2
A24C C72U C85G C131G G133U | ≤ -4.2
A24C C79U G83U C131A | ≤ -4.2
A24C C87A A119C | ≤ -4.2
A24C G25C G92A C108U | ≤ -4.2
A24C G25U A29G C105G | ≤ -4.2
A24C G34U U44A A60G G83A C85G G88U A147U | ≤ -4.2
A24C G50U G71A A73U C93G A106U C123G G128U G143C | ≤ -4.2
A24C G65A G84C A97G G100U C108G | ≤ -4.2
A24C G65A G84C A97G G100U C108G G141C | ≤ -4.2
A24C G74C G80A C87U C93A G112A U127A A138C | ≤ -4.2
A24C G84A | ≤ -4.2

Variant | polymerase ribozyme fitness (log ratio)
A24C G84A G133A | ≤ -4.2
A24C G84A U109A | ≤ -4.2
A24C G86C A147C | ≤ -4.2
A24C U31A A40C G59C A66C A110C C114A U127G | ≤ -4.2
A24C U31G G81C G83U G94A | ≤ -4.2
A24C U45G G80C C96G U109C C114G G140U | ≤ -4.2
A24C U55A A73U G84U U102A A110U A119C | ≤ -4.2
A24C U56A G68A G141A | ≤ -4.2
A24C U61A C63G G81A G94A | ≤ -4.2
A24G A26G C85G C87U A106G U135G | ≤ -4.2
A24G A29C A37G G46U C57U C76U A122U A138G U144G U151C | ≤ -4.2
A24G A29G G46U C79U A89C C93G A98C U148C G152U | ≤ -4.2
A24G A29U C75U C79U C93U A106G A113G | ≤ -4.2
A24G A30U G42U C72U A91G A120C | ≤ -4.2
A24G A37C C85G C125G | ≤ -4.2
A24G A39U | ≤ -4.2
A24G A40C U55G A97U | ≤ -4.2
A24G A41G A47G U61C G74A G86A A147C A150U | ≤ -4.2
A24G A49C U55C C95U C108U | ≤ -4.2
A24G A52C G58C G70U C132U | ≤ -4.2
A24G A52G U55A C85U A150C | ≤ -4.2
A24G A73G C116A A138C U148G | ≤ -4.2
A24G A115G U127A | ≤ -4.2
A24G C27A A40U A60U A89C | ≤ -4.2

Variant | polymerase ribozyme fitness (log ratio)
A24G C27A A91U U102A C125A A137C U139C | ≤ -4.2
A24G C27G A41G C43U G128U U139A A142G | ≤ -4.2
A24G C27G G46A C85U U134G G143C U151G | ≤ -4.2
A24G C32G U78C G126U U130G | ≤ -4.2
A24G C35U A39G U55A G83U G86A | ≤ -4.2
A24G C35U C118G U135G | ≤ -4.2
A24G C36G | ≤ -4.2
A24G C36U A40G G59C | ≤ -4.2
A24G C43A A73G G92C C93U A121G G128U U135A G136U A142C | ≤ -4.2
A24G C51G A138C A142C | ≤ -4.2
A24G C51G G74C A91U U101A U104G U130A A142U | ≤ -4.2
A24G C54A A106G | ≤ -4.2
A24G C54U G67A G141A A150C | ≤ -4.2
A24G C57U | -3.7
A24G C69U C75U U82G U148C | ≤ -4.2
A24G C75G G84A C132U | ≤ -4.2
A24G C76G G92A C103A | ≤ -4.2
A24G C85A U146C | ≤ -4.2
A24G C85U C96U G117C U151A | ≤ -4.2
A24G C85U U102G | ≤ -4.2
A24G C87A C105U C149G | ≤ -4.2
A24G C87A C108A | ≤ -4.2
A24G C96G A137U | ≤ -4.2
A24G C99U A115G G141C | ≤ -4.2

Variant | polymerase ribozyme fitness (log ratio)
A24G C116U A138C | ≤ -4.2
A24G G25U A73G G94A C105G A121C G143U A147G | ≤ -4.2
A24G G25U U31C U55A C87G U102G | ≤ -4.2
A24G G46U U55A A73G G81A G92A G140U | ≤ -4.2
A24G G80C G83C A115U U134A | ≤ -4.2
A24G G83C G88U C116A C132A | ≤ -4.2
A24G G84A C114G G133U | ≤ -4.2
A24G G86A C99G | ≤ -4.2
A24G U31A C38G U53A C57A U77C G83A A137C | ≤ -4.2
A24G U31G A64C C95A A107G A113C U146G | ≤ -4.2
A24G U53A C63U C114G U139A G143A A147G | ≤ -4.2
A24G U53A C95U | ≤ -4.2
A24G U55G | -3.78
A24G U56C C93U A97U C103U C114U C131G A137G | ≤ -4.2
A24U A26C C27G C36G G81A A98G G136U U139G A142C | ≤ -4.2
A24U A26G A64C G84U A97U A122C | ≤ -4.2
A24U A28U C43U U45G A52G G84A A91C C118U A138C G140C | ≤ -4.2
A24U A29C U55A G58U C93A A120U A122G G136A C149A | ≤ -4.2
A24U A29G A47U U55A A73C U77G G81A A91G | ≤ -4.2
A24U A29G A52G A91U G126U U144G | ≤ -4.2
A24U A29G C118U | ≤ -4.2
A24U A29U A66G C76U C85G C103U | ≤ -4.2
A24U A29U C32G G42A U53C U55A C95A C99U | ≤ -4.2
A24U A30G A37C U56G G86U G117U | ≤ -4.2

Variant | polymerase ribozyme fitness (log ratio)
A24U A30U A39C A40U C63G A64G C87A C108A C131A | ≤ -4.2
A24U A30U G59A U101C U102G A121U G126C A142C | ≤ -4.2
A24U A37C G59U G62U G80U U82A C118U C132G U134C | ≤ -4.2
A24U A39C G92U U144G U148G | ≤ -4.2
A24U A40C A47G C51G A52U G86A | ≤ -4.2
A24U A40C A98U | 0.235
A24U A41C C76U G80A C85U A121G G141C U144G | ≤ -4.2
A24U A41C U45A G46C A49C G86A | -3.99
A24U A41G C69A C99G | -2.54
A24U A41U G86U | -3.62
A24U A47C G48C C85G G88C | ≤ -4.2
A24U A49G G59U C95U C99A C105U G133A | ≤ -4.2
A24U A60G C85U A97C C129U | -0.602
A24U A60U G83A | -1.22
A24U A66G | -3.16
A24U A66U G68C G92A C131G | ≤ -4.2
A24U A73U A119G A121U C132A | -3.66
A24U C27G G50C C54G A64C G84A G86C C118G C149U | ≤ -4.2
A24U C27U U55A C63G C93G A113U C114U G141C | ≤ -4.2
A24U C32U C35A G42C G68A C76U U144A | ≤ -4.2
A24U C35A A41C G88C | ≤ -4.2
A24U C35A C85U C132A | ≤ -4.2
A24U C36A A49U C116G A120U A138U | ≤ -4.2
